# Measurements reported in the supplement of paper PMC8728848.
# Some of the results follow.
# B1: NakA (Mycobacterium tuberculosum) (protein)
# chain: SVVKPTKVTVFSPDGGADNPGEADLAIDGNPATSWKTDIYTDPVPFPSFKNGVGLMLQLPQATVVGTVAIDVASTGTKVEIRSASTPTPATLEDTAVLTSATALRPGHNTISVEAAAPTSNLLVWISTLGTTDGKSQADISEITIYAASD
# Legend:
# Experiment in all cases: glycan array binding signal (z-score within array); higher = stronger binding
# Settings in all cases: glycan notation: IUPAC condensed, linker removed
# Fuc(a1-2)Gal = biological target: Fuc(a1-2)Gal
# Summary of the method: (§1)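 The binding signal is a Z-score computed within each array and averaged over linkers. Arrays of the same protein sequence at different concentrations or buffers were also averaged together. Data originate from 3228 arrays in the Consortium for Functional Glycomics database, kept only where the protein sequence was available.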
# Fuc(a1-2)Gal(b1-3)GalNAc = biological target: Fuc(a1-2)Gal(b1-3)GalNAc
# Summary of the method: as §1
# [1] = biological target: Fuc(a1-2)Gal(b1-3)GalNAc(b1-3)Gal
# Summary of the method: as §1
# [2] = biological target: Fuc(a1-2)Gal(b1-3)GalNAc(b1-3)Gal(a1-4)Gal(b1-4)Glc
# Summary of the method: as §1
# [3] = biological target: Fuc(a1-2)Gal(b1-3)GalNAc(b1-3)Gal(b1-4)Glc
# Summary of the method: as §1
# [4] = biological target: Fuc(a1-2)Gal(b1-3)GalNAc(b1-4)[Neu5Ac(a2-3)]Gal(b1-4)Glc
# Summary of the method: as §1
# [5] = biological target: Fuc(a1-2)Gal(b1-3)[Fuc(a1-4)]GlcNAc
# Summary of the method: as §1
# Fuc(a1-2)Gal(b1-4)Glc = biological target: Fuc(a1-2)Gal(b1-4)Glc
# Summary of the method: as §1
# Fuc(a1-2)Gal(b1-4)GlcNAc = biological target: Fuc(a1-2)Gal(b1-4)GlcNAc
# Summary of the method: as §1
# [6] = biological target: Fuc(a1-2)Gal(b1-4)GlcNAc(b1-3)Gal(b1-4)GlcNAc
# Summary of the method: as §1
# [7] = biological target: Fuc(a1-2)Gal(b1-4)GlcNAc(b1-3)Gal(b1-4)GlcNAc(b1-3)Gal(b1-4)GlcNAc
# Summary of the method: as §1
# [8] = biological target: Fuc(a1-2)Gal(b1-4)[Fuc(a1-3)]GalNAc(b1-3)Gal(b1-4)[Fuc(a1-3)]GlcNAc
# Summary of the method: as §1
# [9] = biological target: Fuc(a1-2)Gal(b1-4)[Fuc(a1-3)]GalNAc(b1-3)Gal(b1-4)[Fuc(a1-3)]GlcNAc(b1-3)Gal(b1-4)[Fuc(a1-3)]GalNAc
# Summary of the method: as §1
# [10] = biological target: Fuc(a1-2)Gal(b1-4)[Fuc(a1-3)]GlcNAc
# Summary of the method: as §1
# Fuc(a1-2)GlcNAc = biological target: Fuc(a1-2)GlcNAc
# Summary of the method: as §1
# Fuc(a1-2)[Gal(a1-3)]Gal = biological target: Fuc(a1-2)[Gal(a1-3)]Gal
# Summary of the method: as §1
# [11] = biological target: Fuc(a1-2)[Gal(a1-3)]Gal(b1-3)GlcNAc
# Summary of the method: as §1
# [12] = biological target: Fuc(a1-2)[Gal(a1-3)]Gal(b1-4)Glc
# Summary of the method: as §1
# [13] = biological target: Fuc(a1-2)[Gal(a1-3)]Gal(b1-4)GlcNAc
# Summary of the method: as §1
# [14] = biological target: Fuc(a1-2)[Gal(a1-3)]Gal(b1-4)[Fuc(a1-3)]GlcNAc
# Summary of the method: as §1
# [15] = biological target: Fuc(a1-2)[Gal(a1-4)]Gal(b1-4)GalNAc
# Summary of the method: as §1
# [16] = biological target: Fuc(a1-2)[GalNAc(a1-3)]Gal
# Summary of the method: as §1
# [17] = biological target: Fuc(a1-2)[GalNAc(a1-3)]Gal(b1-3)GlcNAc
# Summary of the method: as §1
# [18] = biological target: Fuc(a1-2)[GalNAc(a1-3)]Gal(b1-4)Glc
# Summary of the method: as §1
# [19] = biological target: Fuc(a1-2)[GalNAc(a1-3)]Gal(b1-4)GlcNAc
# Summary of the method: as §1
# [20] = biological target: Fuc(a1-2)[GalNAc(a1-3)]Gal(b1-4)[Fuc(a1-3)]GlcNAc
# Summary of the method: as §1
# [21] = biological target: Fuc(a1-2)[GalNAc(a1-4)]Gal(b1-4)GlcNAc
# Summary of the method: as §1
# Fuc(a1-3)GlcNAc = biological target: Fuc(a1-3)GlcNAc
# Summary of the method: as §1
# [22] = biological target: Fuc(a1-3)[Gal(b1-4)]GlcNAc
# Summary of the method: as §1
# [23] = biological target: Fuc(a1-3)[Gal(b1-4)]GlcNAc(b1-4)Gal(b1-4)[Fuc(a1-3)]GlcNAc
# Summary of the method: as §1
binder,measurement,setting,value
B1,glycan array binding signal (z-score),Fuc(a1-2)Gal,1.69
same,glycan array binding signal (z-score),Fuc(a1-2)Gal(b1-3)GalNAc,1.25
same,glycan array binding signal (z-score),[1],-0.07
same,glycan array binding signal (z-score),[2],0.748
same,glycan array binding signal (z-score),[3],0.15
same,glycan array binding signal (z-score),[4],-0.166
same,glycan array binding signal (z-score),[5],0.759
same,glycan array binding signal (z-score),Fuc(a1-2)Gal(b1-4)Glc,2.42
same,glycan array binding signal (z-score),Fuc(a1-2)Gal(b1-4)GlcNAc,1.61
same,glycan array binding signal (z-score),[6],1.64
same,glycan array binding signal (z-score),[7],2.46
same,glycan array binding signal (z-score),[8],1.53
same,glycan array binding signal (z-score),[9],2.85
same,glycan array binding signal (z-score),[10],2.46
same,glycan array binding signal (z-score),Fuc(a1-2)GlcNAc,0.978
same,glycan array binding signal (z-score),Fuc(a1-2)[Gal(a1-3)]Gal,0.037
same,glycan array binding signal (z-score),[11],-0.261
same,glycan array binding signal (z-score),[12],0.028
same,glycan array binding signal (z-score),[13],-0.351
same,glycan array binding signal (z-score),[14],2.29
same,glycan array binding signal (z-score),[15],0.019
same,glycan array binding signal (z-score),[16],0.057
same,glycan array binding signal (z-score),[17],1.21
same,glycan array binding signal (z-score),[18],0.489
same,glycan array binding signal (z-score),[19],0.624
same,glycan array binding signal (z-score),[20],1.32
same,glycan array binding signal (z-score),[21],0.052
same,glycan array binding signal (z-score),Fuc(a1-3)GlcNAc,3.17
same,glycan array binding signal (z-score),[22],-0.303
same,glycan array binding signal (z-score),[23],0.114
